# The other results are listed elsewhere or left out.
# What was measured:
# [1] = test system: HSkMC (human skeletal muscle cells); test: cytotoxicity call (relative viability < 0.9); conditions: 10 µM
# [2] = test system: HepG2; test: cytotoxicity call (relative viability < 0.9); conditions: 10 µM
# [3] = test system: S. aureus RN4220; test: growth inhibition call (relative growth <= 0.2); conditions: 50 µM
SMILES,cytotoxicity call [1],cytotoxicity call [2],growth inhibition call [3]
C[C@@H]1CCCCO[C@H](CN(C)C(=O)Nc2ccc3c(c2)OCO3)[C@H](C)CN([C@H](C)CO)C(=O)c2cc(NC(=O)c3ccccc3)ccc2O1,inactive,inactive,inactive
C[C@H]1CN([C@@H](C)CO)C(=O)Cc2cc(NC(=O)Cc3cn(C)c4ccccc34)ccc2O[C@H]1CN(C)S(C)(=O)=O,inactive,inactive,inactive
Cc1ncc(CO)c(CO)c1O,inactive,inactive,inactive
CO[C@H]1CN(C)C(=O)c2cc(NC(=O)C3CCOCC3)ccc2OC[C@@H](C)N(Cc2cccnc2)C[C@@H]1C,inactive,inactive,inactive
CC(C)NC(=O)Nc1ccc2c(c1)C(=O)N([C@@H](C)CO)C[C@@H](C)[C@@H](CN(C)S(=O)(=O)c1cn(C)cn1)OCCCC[C@@H](C)O2,inactive,inactive,inactive
Cc1onc(-c2ccccc2)c1C#N,inactive,inactive,inactive
C[C@@H]1CCCCO[C@H](CN(C)C(=O)NC2CCCCC2)[C@H](C)CN([C@@H](C)CO)C(=O)c2cc(NC(=O)NC3CCCCC3)ccc2O1,inactive,inactive,inactive
C[C@@H]1CN([C@@H](C)CO)C(=O)c2cc(NC(=O)c3ccncc3)ccc2O[C@@H]1CN(C)Cc1ccncc1,inactive,inactive,inactive
C[C@H](CO)N1C[C@H](C)[C@@H](CN(C)Cc2ccc(Oc3ccccc3)cc2)Oc2ccc(NS(=O)(=O)c3ccc(F)cc3)cc2CC1=O,inactive,inactive,inactive
CS(=O)(=O)N1CCN(c2ccccc2)CC1,inactive,inactive,inactive
COc1ccc(S(=O)(=O)N(C)C[C@H]2OCCCC[C@@H](C)Oc3ccc(NC(=O)Nc4cccc5ccccc45)cc3C(=O)N([C@@H](C)CO)C[C@H]2C)cc1,inactive,inactive,inactive
CNCC(O)C(O)C(O)C(O)CO.Cc1c(Nc2ncccc2C(=O)O)cccc1C(F)(F)F,inactive,inactive,inactive
COc1oc(C(=O)NC2CCCCC2)c(-c2ccc(Cl)cc2)c1S(=O)(=O)c1ccc(C(F)(F)F)cc1[N+](=O)[O-],inactive,inactive,inactive
C[C@@H]1CCCCO[C@@H](CN(C)S(=O)(=O)c2cn(C)cn2)[C@@H](C)CN([C@@H](C)CO)C(=O)c2cc(NS(C)(=O)=O)ccc2O1,inactive,inactive,inactive
COc1cc(C)ccc1S(=O)(=O)N1[C@@H]2CC[C@@H](C2)[C@H]1c1nc2cccc(OCc3ccccc3)c2[nH]1,inactive,inactive,inactive
C[C@H](CO)N1C[C@H](C)[C@H](CN(C)C(=O)Nc2ccc(F)cc2)Oc2ccc(NS(C)(=O)=O)cc2C1=O,inactive,inactive,inactive
COc1ccc(NC(=O)N(C)C[C@H]2OCCCC[C@@H](C)Oc3ccc(NC(=O)C4CCCCC4)cc3C(=O)N([C@@H](C)CO)C[C@H]2C)cc1,inactive,inactive,inactive
CC(C)NC(=O)N(C)C[C@@H]1Oc2ccc(NC(=O)c3ccncc3)cc2CC(=O)N([C@H](C)CO)C[C@H]1C,inactive,inactive,inactive
C[C@H](CO)N1C[C@H](C)[C@H](CN(C)C(=O)Nc2cccc3ccccc23)Oc2c(NC(=O)Nc3ccccc3)cccc2C1=O,inactive,inactive,inactive
C[C@H]1CCCCO[C@H](CN(C)Cc2ccc(C(F)(F)F)cc2)[C@@H](C)CN([C@@H](C)CO)C(=O)c2cc(NC(=O)Nc3ccccc3)ccc2O1,active,active,inactive
C[C@H]1CCCCO[C@@H](CN(C)C(=O)Nc2ccccc2)[C@@H](C)CN([C@@H](C)CO)C(=O)c2cc(NC(=O)c3ccncc3)ccc2O1,inactive,inactive,inactive
COc1ccc(NC(=O)Nc2ccc3c(c2)C(=O)N([C@@H](C)CO)C[C@@H](C)[C@H](CN(C)Cc2ccc(Cl)c(Cl)c2)OCCCC[C@H](C)O3)cc1,inactive,inactive,inactive
C[C@@H](OCc1ccccc1)[C@H]1NC(=O)[C@@]23C(=O)N[C@@H](Cc4ccccc4)[C@H]2[C@H](C)[C@@]2(C)O[C@H]2[C@@H]3/C=C/C/C=C\CNC(=O)CNC1=O,inactive,inactive,inactive
Cc1ccc(S(=O)(=O)Nc2ccc3c(c2)C(=O)N([C@H](C)CO)C[C@H](C)[C@H](CN(C)C(=O)Nc2ccccc2)OCCCC[C@@H](C)O3)cc1,inactive,inactive,inactive

# From the antibiotic and cytotoxicity screens of Wong et al. (2023)
